In PMC9911399, “Two distinct binding modes provide the RNA-binding protein RbFox with extraordinary sequence specificity”:
Changes are numbered by the printed parent chain; changes in the protein carry UniProt numbers. The list shows a part of the results.

T1: RBFOX1 RRM RbFoxmut (Fox-RRM*) (Homo sapiens, UniProt Q9NWB1 109-208, R118D;E147R;N151S;E152T)
T1 sequence: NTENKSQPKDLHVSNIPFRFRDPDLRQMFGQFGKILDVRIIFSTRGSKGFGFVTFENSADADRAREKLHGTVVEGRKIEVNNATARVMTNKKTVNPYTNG

B1: UCCGCCU (DNA:RNA)
RNA: GGGAGACCGGAAUUCAGAUUGUCCUCCGCCUUUAAAUCCCGUCGUAGCCACCA
DNA 1: CAATCTGAATTCCGGTCTCCC
DNA 2: TGGTGGCTACGACGGGATT
B2: GCUCGAA (DNA:RNA)
RNA: B1 RNA with U25G, C27U, G28C, C29G, C30A, U31A
DNA 1: CAATCTGAATTCCGGTCTCCC
DNA 2: TGGTGGCTACGACGGGATT
B3: UCUUGGG (DNA:RNA)
RNA: B1 RNA with C27U, G28U, C29G, C30G, U31G
DNA 1: CAATCTGAATTCCGGTCTCCC
DNA 2: TGGTGGCTACGACGGGATT
B4: CGGGGCA (DNA:RNA)
RNA: B1 RNA with U25C, C26G, C27G, C29G, U31A
DNA 1: CAATCTGAATTCCGGTCTCCC
DNA 2: TGGTGGCTACGACGGGATT
B5: AUGGAGA (DNA:RNA)
RNA: B1 RNA with U25A, C26U, C27G, C29A, C30G, U31A
DNA 1: CAATCTGAATTCCGGTCTCCC
DNA 2: TGGTGGCTACGACGGGATT
B6: AAGGACC (DNA:RNA)
RNA: B1 RNA with U25A, C26A, C27G, C29A, U31C
DNA 1: CAATCTGAATTCCGGTCTCCC
DNA 2: TGGTGGCTACGACGGGATT
B7: GCUCGUU (DNA:RNA)
RNA: B1 RNA with U25G, C27U, G28C, C29G, C30U
DNA 1: CAATCTGAATTCCGGTCTCCC
DNA 2: TGGTGGCTACGACGGGATT
B8: GUUAGUC (DNA:RNA)
RNA: GGGAGACCGGAAUUCAGAUUGUCCGUUAGUCUUAAAUCCCGUCGUAGCCACCA
DNA 1: CAATCTGAATTCCGGTCTCCC
DNA 2: TGGTGGCTACGACGGGATT
B9: ACACAUA (DNA:RNA)
RNA: B8 RNA with G25A, U26C, U27A, A28C, G29A, C31A
DNA 1: CAATCTGAATTCCGGTCTCCC
DNA 2: TGGTGGCTACGACGGGATT
B10: CGCCUUG (DNA:RNA)
RNA: B8 RNA with G25C, U26G, U27C, A28C, G29U, C31G
DNA 1: CAATCTGAATTCCGGTCTCCC
DNA 2: TGGTGGCTACGACGGGATT
B11: GAGCGUC (DNA:RNA)
RNA: B8 RNA with U26A, U27G, A28C
DNA 1: CAATCTGAATTCCGGTCTCCC
DNA 2: TGGTGGCTACGACGGGATT
B12: GAAAUAG (DNA:RNA)
RNA: B8 RNA with U26A, U27A, G29U, U30A, C31G
DNA 1: CAATCTGAATTCCGGTCTCCC
DNA 2: TGGTGGCTACGACGGGATT
B13: CAUCCGG (DNA:RNA)
RNA: B8 RNA with G25C, U26A, A28C, G29C, U30G, C31G
DNA 1: CAATCTGAATTCCGGTCTCCC
DNA 2: TGGTGGCTACGACGGGATT
B14: ACCAGUC (DNA:RNA)
RNA: B8 RNA with G25A, U26C, U27C
DNA 1: CAATCTGAATTCCGGTCTCCC
DNA 2: TGGTGGCTACGACGGGATT
B15: UCGUCGA (DNA:RNA)
RNA: B1 RNA with C27G, G28U, C30G, U31A
DNA 1: CAATCTGAATTCCGGTCTCCC
DNA 2: TGGTGGCTACGACGGGATT
B16: UGGAUAC (DNA:RNA)
RNA: B8 RNA with G25U, U26G, U27G, G29U, U30A
DNA 1: CAATCTGAATTCCGGTCTCCC
DNA 2: TGGTGGCTACGACGGGATT
B17: AUUUUCG (DNA:RNA)
RNA: B8 RNA with G25A, A28U, G29U, U30C, C31G
DNA 1: CAATCTGAATTCCGGTCTCCC
DNA 2: TGGTGGCTACGACGGGATT
B18: CAUAUGC (DNA:RNA)
RNA: B8 RNA with G25C, U26A, G29U, U30G
DNA 1: CAATCTGAATTCCGGTCTCCC
DNA 2: TGGTGGCTACGACGGGATT
B19: GGUUCUA (DNA:RNA)
RNA: B8 RNA with U26G, A28U, G29C, C31A
DNA 1: CAATCTGAATTCCGGTCTCCC
DNA 2: TGGTGGCTACGACGGGATT
B20: GCUUCUU (DNA:RNA)
RNA: B8 RNA with U26C, A28U, G29C, C31U
DNA 1: CAATCTGAATTCCGGTCTCCC
DNA 2: TGGTGGCTACGACGGGATT
B21: UGGAUAU (DNA:RNA)
RNA: B1 RNA with C26G, C27G, G28A, C29U, C30A
DNA 1: CAATCTGAATTCCGGTCTCCC
DNA 2: TGGTGGCTACGACGGGATT
B22: UUUUUGC (DNA:RNA)
RNA: B8 RNA with G25U, A28U, G29U, U30G
DNA 1: CAATCTGAATTCCGGTCTCCC
DNA 2: TGGTGGCTACGACGGGATT
B23: AGCCCAA (DNA:RNA)
RNA: B1 RNA with U25A, C26G, G28C, C30A, U31A
DNA 1: CAATCTGAATTCCGGTCTCCC
DNA 2: TGGTGGCTACGACGGGATT
B24: AUUGCUA (DNA:RNA)
RNA: B8 RNA with G25A, A28G, G29C, C31A
DNA 1: CAATCTGAATTCCGGTCTCCC
DNA 2: TGGTGGCTACGACGGGATT
B25: GCAUAAU (DNA:RNA)
RNA: B1 RNA with U25G, C27A, G28U, C29A, C30A
DNA 1: CAATCTGAATTCCGGTCTCCC
DNA 2: TGGTGGCTACGACGGGATT
B26: GCUGUCA (DNA:RNA)
RNA: B1 RNA with U25G, C27U, C29U, U31A
DNA 1: CAATCTGAATTCCGGTCTCCC
DNA 2: TGGTGGCTACGACGGGATT
B27: ACGACGA (DNA:RNA)
RNA: B1 RNA with U25A, C27G, G28A, C30G, U31A
DNA 1: CAATCTGAATTCCGGTCTCCC
DNA 2: TGGTGGCTACGACGGGATT
B28: UCGUAGA (DNA:RNA)
RNA: B1 RNA with C27G, G28U, C29A, C30G, U31A
DNA 1: CAATCTGAATTCCGGTCTCCC
DNA 2: TGGTGGCTACGACGGGATT
B29: GGUUACU (DNA:RNA)
RNA: B8 RNA with U26G, A28U, G29A, U30C, C31U
DNA 1: CAATCTGAATTCCGGTCTCCC
DNA 2: TGGTGGCTACGACGGGATT
B30: UUGCAUG (DNA:RNA)
RNA: B8 RNA with G25U, U27G, A28C, G29A, C31G
DNA 1: CAATCTGAATTCCGGTCTCCC
DNA 2: TGGTGGCTACGACGGGATT
B31: ACUAGCU (DNA:RNA)
RNA: B8 RNA with G25A, U26C, U30C, C31U
DNA 1: CAATCTGAATTCCGGTCTCCC
DNA 2: TGGTGGCTACGACGGGATT

What follows are binders tested against T1, RBFOX1 RRM RbFoxmut (Fox-RRM*) (assay: EMSA; HiTS-Eq, 1 nM pool, 10 min; buffer printed only for the single-RNA assays: 10 mM Tris pH 7.5, 150 mM NaCl, 3.4 mM EDTA, 0.001% NP-40, 30 C). Details: tags: His6 N-terminal (pET28a); label: 5' 32P.
Summary of the method: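 Relative association constants, normalised to the cognate motif, were derived by comparing read counts of each RNA species with those of the control reaction. The RNA sequenced was the free fraction, separated by 8% native PAGE after a 10 min equilibration in 50 µL of 1 nM 5′-radiolabelled RNA (7 randomized nucleotides) with increasing concentrations of purified wild-type or mutant RbFox RRM.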

Binder | binding signal
B1 | 0.0654 KA relative to UGCAUGU
B2 | 0.0903 KA relative to UGCAUGU
B3 | 0.0726 KA relative to UGCAUGU
B4 | 0.121 KA relative to UGCAUGU
B5 | 0.139 KA relative to UGCAUGU
B6 | 0.0638 KA relative to UGCAUGU
B7 | 0.114 KA relative to UGCAUGU
B8 | 0.0924 KA relative to UGCAUGU
B9 | 0.0808 KA relative to UGCAUGU
B10 | 0.978 KA relative to UGCAUGU
B11 | 0.103 KA relative to UGCAUGU
B12 | 0.109 KA relative to UGCAUGU
B13 | 0.0542 KA relative to UGCAUGU
B14 | 0.063 KA relative to UGCAUGU
B15 | 0.0887 KA relative to UGCAUGU
B16 | 0.0859 KA relative to UGCAUGU

Binder | binding signal
B17 | 0.0844 KA relative to UGCAUGU
B18 | 0.132 KA relative to UGCAUGU
B19 | 0.107 KA relative to UGCAUGU
B20 | 0.0703 KA relative to UGCAUGU
B21 | 0.122 KA relative to UGCAUGU
B22 | 0.0943 KA relative to UGCAUGU
B23 | 0.085 KA relative to UGCAUGU
B24 | 0.165 KA relative to UGCAUGU
B25 | 0.115 KA relative to UGCAUGU
B26 | 0.084 KA relative to UGCAUGU
B27 | 0.0741 KA relative to UGCAUGU
B28 | 0.125 KA relative to UGCAUGU
B29 | 0.0688 KA relative to UGCAUGU
B30 | 0.909 KA relative to UGCAUGU
B31 | 0.127 KA relative to UGCAUGU
